Measured values taken from article PMC4336329 (PLoS ONE, 2015).
The campaign covered roughly 310,000 compounds. About 2,200 (0.71%) showed an effect of 50% or more. The effect is printed as a negative number. Some of the results follow. Where a SMILES comes first, the peptide text is derived from it. [ ]: non-standard residue; d: D form. The star is where a group is joined. ξ: configuration not given here. Cbz = O=C(OCc1ccccc1)*; ξV = CC(C)C(N)C(=O)O; OtBu = CC(C)(C)O*

Biological target: human ether-à-go-go-related gene (hERG) potassium channel (human, UniProt Q12809)
Sequence (Q12809 whole entry, looked up): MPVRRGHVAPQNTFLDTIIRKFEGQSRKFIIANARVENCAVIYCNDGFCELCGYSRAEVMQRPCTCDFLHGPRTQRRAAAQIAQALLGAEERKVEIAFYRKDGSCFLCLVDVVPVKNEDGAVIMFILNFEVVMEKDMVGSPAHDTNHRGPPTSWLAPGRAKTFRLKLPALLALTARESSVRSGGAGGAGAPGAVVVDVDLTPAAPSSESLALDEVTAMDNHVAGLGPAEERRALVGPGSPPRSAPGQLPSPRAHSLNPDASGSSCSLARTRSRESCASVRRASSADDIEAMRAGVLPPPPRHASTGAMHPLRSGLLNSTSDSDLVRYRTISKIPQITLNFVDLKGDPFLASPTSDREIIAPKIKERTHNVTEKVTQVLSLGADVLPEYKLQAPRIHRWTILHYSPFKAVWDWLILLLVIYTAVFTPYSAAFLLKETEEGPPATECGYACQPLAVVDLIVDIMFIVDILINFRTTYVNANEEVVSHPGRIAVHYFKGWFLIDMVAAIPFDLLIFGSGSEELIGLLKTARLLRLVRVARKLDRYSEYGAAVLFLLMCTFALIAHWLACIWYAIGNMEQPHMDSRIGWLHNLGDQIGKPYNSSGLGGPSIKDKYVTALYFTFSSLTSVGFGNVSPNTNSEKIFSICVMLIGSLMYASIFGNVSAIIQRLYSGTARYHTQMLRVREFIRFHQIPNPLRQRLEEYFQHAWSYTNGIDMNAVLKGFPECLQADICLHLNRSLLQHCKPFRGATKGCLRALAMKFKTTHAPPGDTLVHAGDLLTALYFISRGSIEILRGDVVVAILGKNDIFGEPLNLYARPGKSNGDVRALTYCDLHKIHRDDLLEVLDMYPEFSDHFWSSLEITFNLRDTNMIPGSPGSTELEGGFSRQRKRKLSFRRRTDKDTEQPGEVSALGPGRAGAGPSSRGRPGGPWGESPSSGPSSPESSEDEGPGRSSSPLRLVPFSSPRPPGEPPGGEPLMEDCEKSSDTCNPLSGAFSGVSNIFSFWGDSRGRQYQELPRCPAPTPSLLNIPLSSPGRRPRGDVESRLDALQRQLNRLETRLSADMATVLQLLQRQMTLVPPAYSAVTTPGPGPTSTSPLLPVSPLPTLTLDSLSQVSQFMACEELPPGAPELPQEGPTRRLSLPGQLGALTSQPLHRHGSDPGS
Experiment: primary screen, population patch clamp on CHO cells stably expressing hERG

| SMILES | hERG current change (%, negative = inhibition) at 1uM |
| --- | --- |
| CC(C)(c1ccccc1)c1ccc(OCCN2CCOCC2)cc1.Cl | 8.5% |
| CCc1cccc(CC)c1NC(=S)NCc1ccc2[nH]c(C)cc2c1 | 12% |
| O=C(O)CCc1nn2c3ccccc3n(Cc3ccccc3F)c2nc1=O | 19.7% |
| C/C(=N\NC(=O)c1ccc(CSc2nc(C)cc(C)n2)cc1)C1CCCCC1 | 8.81% |
| Cn1ncc(Cl)c1C(=O)Nc1sc2c(c1C(N)=O)CCC2 | 1.63% |
| COC(=O)c1ccc(CN2CCN(C(C)C)C(CCO)C2)cc1 (stereo not drawn) | 8.95% |
| CN(C)c1cccc(C(=O)NC2CCCCCC2)c1 | 11.9% |
| O=c1c(-c2ccccc2)c(O)c2c(n1-c1ccccc1)CCCC2 | 9.96% |
| COC(=O)C1=C(c2ccc(F)cc2OCc2ccccc2)C[C@@H]2CC[C@H]1N2C(=O)NCc1ccc(Cl)cc1 | 14.6% |
| CCOP(=O)(Oc1ccccc1)c1c([N+](=O)[O-])cc(C(F)(F)F)cc1[N+](=O)[O-] (stereo not drawn) | 11.3% |
| O=C1CCN(S(=O)(=O)c2cc(C(F)(F)F)ccc2Cl)CC1 | 9.34% |
| Cc1[nH]n(-c2ccccc2)c(=O)c1/C=N/NC(=O)COc1ccccc1[N+](=O)[O-] | 15.1% |
| Cc1ccc(S(=O)(=O)C2(C(=O)Nc3nccs3)CC2)cc1 | 5.91% |
| CC(C)CC(C(=O)NC1CCCCC1)N(Cc1ccccc1)C(=O)c1snc(C(N)=O)c1N (stereo not drawn) | 11.4% |
| O=C(c1cccc(NS(=O)(=O)c2ccccc2)c1)N1CCCC1 | 9.16% |
| O=C(Cn1ncn2c(cc3ccccc32)c1=O)NCCCc1ccccc1 | 14.7% |
| CN(C)N1C(=O)CC(N2CCCCC2)C1=O (stereo not drawn) | 14.7% |
| Cc1nc2ccc(NC(=O)c3nn(CC(C)C)c(=O)c4ccccc34)cc2s1 | -3.68% |
| CC(C)COc1cccc(C(=O)NC(=S)Nc2cccc(NC(=O)c3ccccc3Cl)c2)c1 | 12.5% |
| [O-][Cl+3]([O-])([O-])[O-].c1ccc(-c2nc(N3CCOCC3)s[n+]2-c2ccccc2)cc1 | 11.3% |
| Cc1cc(=O)[nH]c(N2CCN(C(c3ccccc3)c3ccccc3)CC2)n1 | 14.8% |
| CN(C)c1ccc(C2Nc3ccccc3C(=O)N2NS(=O)(=O)c2ccccc2)cc1 (stereo not drawn) | 13.4% |

| SMILES | hERG current change (%, negative = inhibition) at 1uM |
| --- | --- |
| COCC(C)n1c(SCC(=O)Nc2ccc3c(c2)OCCO3)nc2ccccc2c1=O (stereo not drawn) | 7.34% |
| S=C(Nc1ccccc1)N1CCCCCCC1 | 11.1% |
| CN(C)c1ccc(N2C(=NC(=O)CCC3CCCC3)SC3CS(=O)(=O)CC32)cc1 (stereo not drawn) | 13.1% |
| O=C(NCCC1CCCCN1S(=O)(=O)c1ccccc1)C(=O)NCc1ccccn1 (stereo not drawn) | 5.23% |
| COc1ccc(C)cc1NC(=S)NC(C)c1ccc(OC)c(OC)c1 (stereo not drawn) | 2.73% |
| COCCCNS(=O)(=O)c1ccc(Oc2ncc(C(F)(F)F)cc2Cl)cc1 | 11.4% |
| O=C(O)C(=O)O.OC1CCCN(CC(O)COC(c2ccc(F)cc2)c2ccc(F)cc2)C1 (stereo not drawn) | -14.2% |
| Brc1ccc(-c2noc(C3CCCCC3)n2)cc1 | 6.38% |
| O=C1/C(=C/c2ccccc2Cl)SC(=S)N1CCCC(=O)N(CCO)c1ccccc1 | -0.0098% |
| COc1cc(OC)cc(C(=O)OCCNC(=O)Cn2cnc3c2c(=O)n(C)c(=O)n3C)c1 | -8.43% |
| CC(=O)[C@@]1(O)CC[C@H]2[C@@H]3CCC4=CC(=O)CC[C@]4(C)[C@H]3[C@@H](O)C[C@@]21C | 20.7% |
| COc1cccc(C2=CC(=O)C[C@H](c3ccc4c(c3)OCO4)C2)c1 | 9.04% |
| COc1cccc(C(=O)Nc2ccc(NC(=O)c3ccco3)c(Cl)c2)c1 | 16.4% |
| Nc1nc(NC(=O)c2cccnc2)nn1-c1ccccc1 | 18.9% |
| Cc1ccc(C(C(=O)NC2CCCC2)N(C(=O)Cc2cccs2)c2cccc(C)c2C)o1 (stereo not drawn) | 6.51% |
| Cc1cc(C)cc(N(CCC#N)C(=O)COC(=O)CCc2c[nH]c3ccccc23)c1 | -13.2% |
| CN=C(Nc1ccc(Cl)cc1)c1ccc(C(F)(F)F)cc1 | -2.59% |
| Cc1ccc2cccc(Oc3cnccn3)c2n1 | 10.7% |
| CC1CCCN(S(=O)(=O)c2ccc(C(=O)Nc3nnc(-c4ccncc4)o3)cc2)C1 (stereo not drawn) | 13.9% |
| CCOC(=O)c1ccc(NC(=S)NCCC2=CCCCC2)cc1 | 33.9% |
| NC(=O)c1cc(-c2ccccc2)nc2ccc(Br)cc12 | 11.9% |
| Cc1cc(NC(=O)CS(=O)(=O)c2ccc(F)cc2)no1 | 4.74% |

| SMILES | hERG current change (%, negative = inhibition) at 1uM |
| --- | --- |
| CC(=O)Nc1sc(N/N=C/c2ccc(C)cc2)nc1-c1ccc(C)cc1 | 6.64% |
| CCN1C(=O)CS/C1=N\S(=O)(=O)c1ccc(Cl)cc1 | 13.6% |
| Cc1ccccc1NC(=O)C(C)N1C(=O)c2ccccc2C1=O (stereo not drawn) | 12.9% |
| O=C(NCCCc1ccccc1)c1ccccc1O | 3.2% |
| COc1ccc(-c2nn(-c3ccccc3)cc2CN(C)CCn2ccnc2C)c(F)c1 | -0.372% |
| Cc1ccc2[nH]c(=O)c(CN(Cc3ccccc3)Cc3nnnn3C3CCCC3)cc2c1 | 6.79% |
| N/C(=N\OC(=O)CCC1CCCCC1)c1cccc([N+](=O)[O-])c1 | 3.64% |
| C[n+]1ccccc1C1CCCC/C1=N\NC(N)=S.[Cl-] (stereo not drawn) | 29.2% |
| CCn1ncc(C2=NOC(C(=O)Nc3ccccc3C(=O)OC)C2)c1C (stereo not drawn) | 0.445% |
| O=[N+]([O-])c1ccccc1OCCN1CCCC1 | 11.7% |
| CC(=O)c1c(N2CCCCC2)nc(=O)n(-c2ccccc2)c1C | 15.4% |
| CCOc1ccc(CNCCCSc2ncccn2)cc1OC.Cl | 9.42% |
| Cc1ccc(N2C(=O)Nc3ccccc3C2(O)C(=O)N2CCN(c3ccccn3)CC2)cc1C (stereo not drawn) | 4.92% |
| c1csc(-c2nnsc2-c2nc3ccccc3[nH]2)c1 | 8.15% |
| Cc1ccc(C2NC(=O)CCC2[N+](=O)[O-])cc1 (stereo not drawn) | 11.6% |
| COc1ccc(-c2csc(NCc3ccco3)n2)cc1 | 6.85% |
| O=C(Nc1ccc2c3c(cccc13)CC2)c1cccc([N+](=O)[O-])c1 | 3.11% |
| Cc1cccc(NC(=O)CCCN=C2NS(=O)(=O)c3ccccc32)c1C | 13.9% |
| COc1ccc(Nc2oc(-c3ccccc3F)nc2C#N)cc1 | 19% |
| O=C1c2cccc(OCC(=O)N3CCCc4ccccc43)c2CCN1Cc1ccccc1 | 5.51% |
| C/C(=N\NC(=O)c1ccc([N+](=O)[O-])c(C)c1)c1ccccc1Cl | 2.86% |
| O=C(O)c1cc([N+](=O)[O-])c(Sc2nc3ccccc3[nH]2)c([N+](=O)[O-])c1 | 9.49% |

| SMILES | hERG current change (%, negative = inhibition) at 1uM |
| --- | --- |
| Cc1ccc2c(C)[nH]c(=O)cc2c1 | -5.85% |
| Cc1cc(C)cc(NC(=O)CSc2nnc(Cn3c(=O)sc4ccccc43)n2C)c1 | 5.73% |
| CCN(c1ccccc1)c1nc(=O)c2cccnc2s1 | 5.88% |
| CCCCn1c(N)c(N(CCOC)C(=O)CSCc2c(C)noc2C)c(=O)[nH]c1=O | 14.6% |
| Cc1cnc(C(=O)OCC(=O)Nc2ccc(Oc3ccccc3)cc2)cn1 | 6.79% |
| COc1ccc2c(c1)nc(SCC(=O)C(C)(C)C)n2C | 8.92% |
| Cc1c(C(=O)NCCSc2ccc(Cl)cc2)cccc1[N+](=O)[O-] | 12.2% |
| COc1ccc(N2C(=O)C(CC(=O)Nc3ccccc3)N(CCc3ccc(OC)c(OC)c3)C2=O)cc1 (stereo not drawn) | 6.87% |
| O=C(CCn1nnc2ccccc2c1=O)NCC1CCC(C(=O)O)CC1 (stereo not drawn) | 8.53% |
| O=C(Nc1ccc(S(=O)(=O)N2CCOCC2)cc1)C1CC(=O)N(c2ccc(F)cc2)C1 (stereo not drawn) | 16.2% |
| C=CCNC(=S)N/N=C(\C)c1cccnc1 | 2.38% |
| O=C(O)c1cccc(-c2nnn(Cc3ccccc3Cl)n2)c1 | -2.88% |
| CC(C)C(NC(=O)OCc1ccccc1)C(=O)NCC(=O)OC(C)(C)C (stereo not drawn) (Cbz-[ξV]-Gly-OtBu) | 11.3% |
| Cc1ccc(OCC(=O)N2N=C(c3ccc(Cl)cc3)CC2c2ccco2)c([N+](=O)[O-])n1 (stereo not drawn) | -40.5% |
| O=[N+]([O-])c1cccc(P(=O)(O)c2cccc([N+](=O)[O-])c2)c1 | 4.21% |
| Cc1noc(C)c1CC(=O)N1CCCC(C(=O)c2ccc(C(C)(C)C)cc2)C1 (stereo not drawn) | 9.58% |
| CC(C)CNC(=O)c1cccc(NC(=O)CCc2ccccc2)c1 | 3.76% |
| Cc1ccccc1OCc1nc(-c2cccnc2)no1 | 0.217% |
| Cc1nc2cc(NC(=O)NCc3ccc4c(c3)OCO4)ccc2o1 | 4.78% |
| Cn1c(=O)[nH]c(=O)c2c1nc(Br)n2Cc1ccccc1F | 6.31% |
| CC(C)C(NS(=O)(=O)c1cccs1)C(=O)N1CCC(C(N)=O)CC1 (stereo not drawn) | 13.1% |
